{
  "source": "patent US20140107021A1",
  "about": "(priority 2010, published 2014)",
  "key": {"[1]": {"biological_target": "T1, GIP receptor (Homo sapiens, UniProt P48546)", "T1 construct": "expressed in transfected cells; host or cells: HEK293", "T1 sequence (P48546 22-466)": "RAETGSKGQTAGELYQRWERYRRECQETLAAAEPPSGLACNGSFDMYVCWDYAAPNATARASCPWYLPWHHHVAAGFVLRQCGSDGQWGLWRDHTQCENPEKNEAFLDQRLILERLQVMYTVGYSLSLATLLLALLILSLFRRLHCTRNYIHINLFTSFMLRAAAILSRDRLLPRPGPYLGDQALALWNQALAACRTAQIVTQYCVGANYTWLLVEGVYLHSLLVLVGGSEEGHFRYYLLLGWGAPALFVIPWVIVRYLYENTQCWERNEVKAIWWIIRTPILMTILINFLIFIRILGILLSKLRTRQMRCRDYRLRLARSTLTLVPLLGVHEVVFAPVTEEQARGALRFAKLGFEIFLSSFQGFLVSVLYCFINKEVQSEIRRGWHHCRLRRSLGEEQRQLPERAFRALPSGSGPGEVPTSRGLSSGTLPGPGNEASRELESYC", "experiment": "cAMP induction at the GIP receptor (agonist activity), luciferase reporter assay in HEK293 cells", "assay_type": "cell-based", "excerpt": "(§1) HEK293 cells co-transfected with the receptor and luciferase gene linked to a cAMP responsive element were employed for the bioassay.\n(§2) All EC50s and IC50s are reported in the following examples in nM, unless indicated otherwise."}, "[2]": {"biological_target": "T2, GLP-1 receptor (Homo sapiens, UniProt P43220)", "T2 construct": "expressed in transfected cells; host or cells: HEK293", "T2 sequence (P43220 24-463)": "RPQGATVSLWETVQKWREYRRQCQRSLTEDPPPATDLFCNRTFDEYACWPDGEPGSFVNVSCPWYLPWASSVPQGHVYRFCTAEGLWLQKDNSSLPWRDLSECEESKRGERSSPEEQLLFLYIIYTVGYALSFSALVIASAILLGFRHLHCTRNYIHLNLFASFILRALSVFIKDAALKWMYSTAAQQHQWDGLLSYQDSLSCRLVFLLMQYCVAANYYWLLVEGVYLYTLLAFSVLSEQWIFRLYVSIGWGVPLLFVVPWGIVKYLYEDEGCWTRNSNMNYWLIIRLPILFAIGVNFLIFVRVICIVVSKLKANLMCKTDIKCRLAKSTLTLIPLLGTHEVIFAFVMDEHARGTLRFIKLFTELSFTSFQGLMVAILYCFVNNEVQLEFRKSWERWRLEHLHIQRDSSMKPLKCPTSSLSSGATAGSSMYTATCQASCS", "experiment": "cAMP induction at the GLP-1 receptor (agonist activity), firefly luciferase reporter assay in HEK293 cells", "assay_type": "cell-based", "excerpt": "as §1, §2"}, "[3]": {"biological_target": "glucagon receptor (Homo sapiens, UniProt P47871)", "sequence (P47871 26-477)": "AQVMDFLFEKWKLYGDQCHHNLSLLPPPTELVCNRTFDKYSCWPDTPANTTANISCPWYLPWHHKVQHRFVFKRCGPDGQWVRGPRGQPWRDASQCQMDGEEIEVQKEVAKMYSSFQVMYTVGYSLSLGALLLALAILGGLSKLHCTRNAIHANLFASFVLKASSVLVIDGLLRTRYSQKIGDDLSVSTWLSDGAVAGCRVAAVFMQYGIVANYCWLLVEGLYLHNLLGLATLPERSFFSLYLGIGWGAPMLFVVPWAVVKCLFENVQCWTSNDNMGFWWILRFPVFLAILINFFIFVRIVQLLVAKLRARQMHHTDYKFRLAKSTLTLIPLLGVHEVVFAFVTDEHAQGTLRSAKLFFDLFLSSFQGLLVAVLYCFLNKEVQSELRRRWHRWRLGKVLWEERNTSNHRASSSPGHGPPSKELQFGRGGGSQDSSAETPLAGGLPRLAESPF", "excerpt": "as §1, §2"}, "[4]": {"details": "read-out: GLP-1 (EC50), Table 2"}, "[5]": {"details": "read-out: Glu ICso, Table A, Glu = glucagon"}, "[6]": {"details": "read-out: Glucagon IC50, Table C"}},
  "note": "Where two headings read alike, the source gives them in different places. Part of at least one peptide drawing is inferred or uncertain, most often the ends. At least one structure is not confirmed: it was looked up by name or label, or the drawing left a doubt. Numbered stars: 1 amine (or outer) side, 2 acyl side, 3 side chain; on linkers, the order of the positions; unused ones are H or OH. Bridge positions count the residues as written; N and C are the ends. Square brackets hold non-standard residues; d marks the D form. Side chains are listed from the residue outwards. Ends that are not written are not given here. Peptide text beside a SMILES is read from it. I, II: the chains in the order shown. * marks the point of attachment. X1 = O=C(CCN1C(=O)CC([*:2])C1=O)NCCC(=O)[*:1]; γGlu = O=C(O)[C@H](CCC(=O)[*:2])N[*:1]; Palmitoyl = CCCCCCCCCCCCCCCC(=O)*; PhLac = O=C(O)[C@@H](O)Cc1ccccc1; Aib = CC(C)(N)C(=O)O",
  "data": [
    {"molecule": "I: A[Aib]EGTFISDYSIAMDKIHQQDFVNWLLAGGPSSGAPPPSK-NH2 / II: H[Aib]EGT[PhLac]TSDYSKYLDERRAKDFVCWLMDGGPSSGAPPPSK([γGlu-γGlu-Palmitoyl])-NH2 (linker I:40-II:24 via X1; lactam II:16-II:20) [Peptide A5-B1, HΛibEGT-PLΛ6, (E16K20), C24, cex, K40(rErEC16) G(1-40)/A1, Aib2, E3, K40 GTP(1-40)]", "values": [
      {"measurement": "EC50", "setting": "[1]; read-out: GIP (EC50), Table 2", "value": 0.379, "unit": "nM"},
      {"measurement": "EC50", "setting": "[2]; [4]", "value": 0.363, "unit": "nM"}
    ]},
    {"molecule": "I: A[Aib]EGTFISDYSIAMDKIHQQDFVNWLLAGGPSSGAPPPSK-NH2 / II: [PhLac]TSDYSKYLDERRAKDFVCWLMDT-NH2 (linker I:40-II:19 via X1; lactam II:11-II:15) [Peptide A2-B1, PLA6, (E16K20), C24 G(6-29)/A1, Aib2, E3, K40 GIP(1-40)]", "values": [
      {"measurement": "EC50", "setting": "[1]; read-out: GIP (EC50), Table 2", "value": 1.29, "unit": "nM"},
      {"measurement": "EC50", "setting": "[2]; [4]", "value": 367, "unit": "nM"},
      {"measurement": "EC50", "setting": "[3]; read-out: Glucagon (EC50), Table 2, heterodimers, tested for inhibitory activity at the glucagon receptor", "value": 40.1, "unit": "nM"}
    ]},
    {"molecule": "CSCC[C@H](NC(=O)[C@H](CC(C)C)NC(=O)[C@H](Cc1c[nH]c2ccccc12)NC(=O)[C@H](CCC(N)=O)NC(=O)[C@@H](NC(=O)[C@H](Cc1ccccc1)NC(=O)[C@H](CC(=O)O)NC(=O)[C@@H]1CCCCNC(=O)CC[C@H](NC(=O)[C@H](CC(=O)O)NC(=O)[C@H](CC(C)C)NC(=O)[C@H](Cc2ccc(O)cc2)NC(=O)[C@H](CCCCN)NC(=O)[C@H](CO)NC(=O)[C@H](Cc2ccc(O)cc2)NC(=O)[C@H](CCC(=O)O)NC(=O)[C@H](CO)NC(=O)[C@@H](NC(=O)[C@@H](N)Cc2ccccc2)[C@@H](C)O)C(=O)N[C@@H](CCCNC(=N)N)C(=O)N[C@@H](CCCNC(=N)N)C(=O)N[C@@H](C)C(=O)N1)C(C)C)C(=O)N[C@@H](CC(N)=O)C(=O)N[C@H](C(=O)NCC(=O)N1CCC[C@H]1C(=O)N[C@@H](CO)C(=O)N[C@@H](CO)C(=O)NCC(=O)N[C@@H](C)C(=O)N1CCC[C@H]1C(=O)N1CCC[C@H]1C(=O)N1CCC[C@H]1C(=O)N[C@@H](CO)C(N)=O)[C@@H](C)O", "note": "[E9, E16K20(lactam)]", "values": [
      {"measurement": "EC50", "setting": "[2]; read-out: GLP-1 EC50, Table C", "value": 36, "unit": "nM"},
      {"measurement": "EC50", "setting": "[2]; read-out: GLP-1 ECso, Table A", "value": 36, "unit": "nM"},
      {"measurement": "IC50", "setting": "[3]; [5]", "value": 42, "unit": "nM"},
      {"measurement": "IC50", "setting": "[3]; [6]", "value": 42, "unit": "nM"}
    ]},
    {"molecule": "I: A[Aib]EGTFISDYSIAMDKIHQQDFVNWLLAGGPSSGAPPPSK-NH2 / II: H[Aib]EGT[PhLac]TSDYSKYLDERRAKDFVCWLMDT-NH2 (linker I:40-II:24 via X1; lactam II:16-II:20) [Peptide A3-B1, HAibEGT-PLA6, (E16K20), C24 G(1-29)/A1, Aib2, E3, K40 GIP(1-40)]", "values": [
      {"measurement": "EC50", "setting": "[1]; read-out: GIP (EC50), Table 2", "value": 1.58, "unit": "nM"},
      {"measurement": "EC50", "setting": "[2]; [4]", "value": 11.7, "unit": "nM"}
    ]},
    {"molecule": "CC[C@H](C)[C@H](NC(=O)[C@H](CO)NC(=O)[C@H](Cc1ccc(O)cc1)NC(=O)[C@H](CC(=O)O)NC(=O)[C@H](CO)NC(=O)[C@@H](NC(=O)[C@H](Cc1ccccc1)NC(=O)[C@@H](NC(=O)CNC(=O)[C@H](CCC(N)=O)NC(=O)C(C)(C)NC(=O)[C@@H](N)Cc1ccc(O)cc1)[C@@H](C)O)[C@@H](C)O)C(=O)N[C@@H](Cc1ccc(O)cc1)C(=O)N[C@@H](CC(C)C)C(=O)N[C@@H](CC(=O)O)C(=O)N[C@@H](CCCCN)C(=O)N[C@@H](CCCCN)C(=O)N[C@@H](C)C(=O)N[C@@H](C)C(=O)NC(C)(C)C(=O)N[C@@H](CCC(=O)O)C(=O)N[C@@H](Cc1ccccc1)C(=O)N[C@H](C(=O)N[C@@H](CC(N)=O)C(=O)N[C@@H](Cc1c[nH]c2ccccc12)C(=O)N[C@@H](CC(C)C)C(=O)N[C@@H](CC(C)C)C(=O)N[C@@H](C)C(=O)NCC(=O)NCC(=O)N1CCC[C@H]1C(=O)N[C@@H](CO)C(=O)N[C@@H](CO)C(=O)NCC(=O)N[C@@H](C)C(=O)N1CCC[C@H]1C(=O)N1CCC[C@H]1C(=O)N1CCC[C@H]1C(=O)N[C@@H](CO)C(=O)N[C@@H](CCCCN)C(N)=O)C(C)C", "note": "[mt-402]", "values": [
      {"measurement": "EC50", "setting": "[1]; Table 3, read-out: GIPR EC50", "value": 0.0185, "unit": "nM"},
      {"measurement": "EC50", "setting": "[2]; Table 3, read-out: GLP-1R EC50", "value": 0.007, "unit": "nM"}
    ]},
    {"molecule": "I: A[Aib]EGTFISDYSIAMDKIHQQDFVNWLLAGGPSSGAPPPSK-NH2 / II: H[Aib]EGT[PhLac]TSDK([γGlu-γGlu-Palmitoyl])SKYLDERRAKDFVCWLMDT-NH2 (linker I:40-II:24 via X1; lactam II:16-II:20) [Peptide A4-B1, HAibEGT-PLA6, K10(rErEC16), (E16K20), C24 G(1-29)/A1, Aib2, E3, K40 GIP(1-40)]", "values": [
      {"measurement": "EC50", "setting": "[1]; read-out: GIP (EC50), Table 2", "value": 0.347, "unit": "nM"},
      {"measurement": "EC50", "setting": "[2]; [4]", "value": 0.813, "unit": "nM"}
    ]},
    {"molecule": "CCCCCCCCCCCCCCCC(=O)N[C@@H](CCC(=O)N[C@@H](CCC(=O)NCCCC[C@H](NC(=O)[C@H](CO)NC(=O)[C@@H]1CCCN1C(=O)[C@@H]1CCCN1C(=O)[C@@H]1CCCN1C(=O)[C@H](C)NC(=O)CNC(=O)[C@H](CO)NC(=O)[C@H](CO)NC(=O)[C@@H]1CCCN1C(=O)CNC(=O)CNC(=O)[C@H](CC(=O)O)NC(=O)[C@H](CCSC)NC(=O)[C@H](CC(C)C)NC(=O)[C@H](Cc1c[nH]c2ccccc12)NC(=O)[C@H](CS)NC(=O)[C@@H](NC(=O)[C@H](Cc1ccccc1)NC(=O)[C@H](CC(=O)O)NC(=O)[C@@H]1CCCCNC(=O)CC[C@H](NC(=O)[C@H](CC(=O)O)NC(=O)[C@H](CC(C)C)NC(=O)[C@H](Cc2ccc(O)cc2)NC(=O)[C@H](CCCCN)NC(=O)[C@H](CO)NC(=O)[C@H](Cc2ccc(O)cc2)NC(=O)[C@H](CC(=O)O)NC(=O)[C@H](CO)NC(=O)[C@@H](NC(=O)[C@H](Cc2ccccc2)OC(=O)[C@@H](NC(=O)CNC(=O)[C@H](CCC(=O)O)NC(=O)C(C)(C)NC(=O)[C@@H](N)Cc2c[nH]cn2)[C@@H](C)O)[C@@H](C)O)C(=O)N[C@@H](CCCNC(=N)N)C(=O)N[C@@H](CCCNC(=N)N)C(=O)N[C@@H](C)C(=O)N1)C(C)C)C(N)=O)C(=O)O)C(=O)O", "note": "[Peptide A5, HAibEGT-PLA6, (E16K20), cex, K40 (rErEC16) G(1-40)] (HELM PEPTIDE1{H.[Aib].E.G.T.[O=C([C@H](Cc1ccccc1)O[*:1])[*:2]].T.S.D.Y.S.K.Y.L.D.E.R.R.A.K.D.F.V.C.W.L.M.D.G.G.P.S.S.G.A.P.P.P.S.K.[am]}|PEPTIDE2{[CCCCCCCCCCCCCCCC(=O)[*:2]].[gGlu].[gGlu]}$PEPTIDE1,PEPTIDE2,40:R3-3:R2|PEPTIDE1,PEPTIDE1,16:R3-20:R3$$$V2.0; N-terminus assumed; bridges inferred)", "values": [
      {"measurement": "EC50", "setting": "[2]; read-out: GLP-1 (EC50), Table 1, peptide monomers", "value": 0.76, "unit": "nM"},
      {"measurement": "IC50", "setting": "[3]; read-out: Glucagon (IC50), Table 1, peptide monomers, antagonist activity", "value": 150, "unit": "nM"}
    ]},
    {"molecule": "FTSEYSKYLDERRAQDFVQWLMNTGPSSGAPPPS-NH2 (C-terminus assumed) [E9, K12, E16]", "values": [
      {"measurement": "IC50", "setting": "[3]; [5]", "value": 762, "unit": "nM"},
      {"measurement": "IC50", "setting": "[3]; [6]", "value": 762, "unit": "nM"}
    ]},
    {"molecule": "CSCC[C@H](NC(=O)[C@H](CC(C)C)NC(=O)[C@H](Cc1c[nH]c2ccccc12)NC(=O)[C@H](CCC(N)=O)NC(=O)[C@@H](NC(=O)[C@H](Cc1ccccc1)NC(=O)[C@H](CC(=O)O)NC(=O)[C@H](CCC(N)=O)NC(=O)[C@H](C)NC(=O)[C@H](CCCNC(=N)N)NC(=O)[C@H](CCCNC(=N)N)NC(=O)[C@@H]1CCC(=O)NCCCC[C@H](NC(=O)[C@H](CO)NC(=O)[C@H](Cc2ccc(O)cc2)NC(=O)[C@H](CC(=O)O)NC(=O)[C@H](CO)NC(=O)[C@@H](NC(=O)[C@@H](N)Cc2ccccc2)[C@@H](C)O)C(=O)N[C@@H](Cc2ccc(O)cc2)C(=O)N[C@@H](CC(C)C)C(=O)N[C@@H](CC(=O)O)C(=O)N1)C(C)C)C(=O)N[C@@H](CC(N)=O)C(=O)N[C@H](C(=O)NCC(=O)N1CCC[C@H]1C(=O)N[C@@H](CO)C(=O)N[C@@H](CO)C(=O)NCC(=O)N[C@@H](C)C(=O)N1CCC[C@H]1C(=O)N1CCC[C@H]1C(=O)N1CCC[C@H]1C(=O)N[C@@H](CO)C(N)=O)[C@@H](C)O", "note": "[D9, K12E16(Lactam)] (HELM PEPTIDE1{F.T.S.D.Y.S.K.Y.L.D.E.R.R.A.Q.D.F.V.Q.W.L.M.N.T.G.P.S.S.G.A.P.P.P.S.[am]}$PEPTIDE1,PEPTIDE1,7:R3-11:R3$$$V2.0; N-terminus and C-terminus assumed)", "values": [
      {"measurement": "GLP-1 EC50", "setting": "[2]; Table C", "value": 828, "unit": "nM"}
    ]}
  ]
}
